Measured values as given in PubChem BioAssay AID485344 (National Center for Advancing Translational Sciences (NCATS), 2010).
Hit rate of the full screen: of about 340,000 compounds, about 6,900 (2%) were called active. Rule as the data show it: active = inhibition above about 30%; inactive = below that, where a call was filed. The list shows a part of the results, in another mix than the full data. Entries without a call were filed so in the source.

These compounds were tested against D(2) dopamine receptor (Homo sapiens) (UniProt P14416) (assay: HTS Assay for Allosteric Antagonists of the Human D2 Dopamine Receptor: Primary Screen for Antagonists). Settings: HEK293 TREx D2 cells, calcium flux, dopamine EC80; at 10 µM; stronger effect = higher value.
Sequence of UniProt P14416 (P14416 whole entry, looked up): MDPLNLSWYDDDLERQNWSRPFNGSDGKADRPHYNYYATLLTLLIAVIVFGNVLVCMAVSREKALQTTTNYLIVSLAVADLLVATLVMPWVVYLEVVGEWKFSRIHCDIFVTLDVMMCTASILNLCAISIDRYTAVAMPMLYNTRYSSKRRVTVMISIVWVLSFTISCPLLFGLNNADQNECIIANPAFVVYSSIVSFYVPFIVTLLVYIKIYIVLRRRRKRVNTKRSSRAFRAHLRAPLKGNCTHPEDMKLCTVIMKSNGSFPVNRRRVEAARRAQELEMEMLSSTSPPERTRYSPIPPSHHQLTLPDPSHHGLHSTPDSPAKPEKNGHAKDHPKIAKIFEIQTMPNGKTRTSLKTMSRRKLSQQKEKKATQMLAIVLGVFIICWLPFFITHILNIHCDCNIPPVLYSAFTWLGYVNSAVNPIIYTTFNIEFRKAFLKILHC
How it was run: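 HEK293 T-REx D2 cells, tet-induced, calcium dye no-wash. Cpd pintool add, 180 s kinetic, then EC80 DA, 180 s kinetic. Ca flux read.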
Also: 0% is about no effect.

Which inhibition does the source give for `Cc1nnc(N2CCC(C(=O)Nc3ccc(F)cc3)CC2)c2nn(-c3ccc(Cl)cc3)c(C)c12` here?
Its inhibition is 14.8%.

`Cc1ccc(C2c3[nH]c4ccccc4c3CCN2C(=O)c2ccccc2Br)cc1` (stereo unspecified) was tested. Which inhibition did it give?
The inhibition was -3.74%.

With `CCOc1ccc(-c2nonc2NC(=O)c2ccco2)cc1` as the compound, how does the inhibition read?
The inhibition was 1.25%.

`CC1=C(C(=O)NCc2cccc(Br)c2)C2(CCCCC2)OC1=O` was tested. Which inhibition did it give?
The inhibition was 18.8%.

For `CCCCOC(=O)/C(C#N)=C/c1ccc(-c2cccc(C(F)(F)F)c2)o1`, which inhibition is on record?
The inhibition was -6.37%.

With `CCOc1ccc(NC(=O)CSc2nc3c(oc4ccccc43)c(=O)n2-c2cc(C)cc(C)c2)cc1` as the compound, how does the inhibition read?
The inhibition was -6.1%.

`N/C(=N\OC(=O)c1ccc2c(c1)OCO2)c1ccc(Br)cc1` was tested. Which inhibition did it give?
Its inhibition is active: 46.1%.

How did the inhibition turn out when `COc1cc(/C=C/c2nc(C#N)c(N3CCCCC3)o2)cc(OC)c1OC` was run?
Its inhibition is 0.54%.

Which inhibition does the source give for `COc1ccc(Br)cc1/C=N/NC(=O)C[n+]1ccccc1` here?
Its inhibition is active: 40%.

`Cc1ccccc1CNC(=O)C1CCN(S(=O)(=O)Cc2ccccc2)CC1` was tested. Which inhibition did it give?
The inhibition was 8.82%.

For `Cc1ncc(CO)c2c1Oc1nc(-c3ccc(F)cc3)nc(SCC(=O)N3CCCCC3)c1C2`, which inhibition is on record?
The inhibition was 22.9%.

Which inhibition does the source give for `Cc1ccc(CN2C(=O)N(c3ccc(F)cc3)C(=O)C2CC(=O)Nc2ccc(Cl)cc2)cc1` (stereo unspecified) here?
The inhibition was -16.4%.

`Cc1ccc(NC(=O)CSc2nnc(-c3cc4occc4n3C)n2-c2ccccc2C)c(Cl)c1` was tested. Which inhibition did it give?
Its inhibition is 7.84%.

For `COC(=O)CN1C(=O)CSc2ccc(S(=O)(=O)Nc3cccc(Br)c3)cc21`, which inhibition is on record?
Its inhibition is -1.15%.

For `Cc1ccc(C)c(Cn2c3ccccc3c3cnn(CC(=O)NC4CCC(C)CC4)c(=O)c32)c1` (stereo unspecified), which inhibition is on record?
The inhibition was 8.28%.

With `COc1ccc(NC(=O)CSC2=Nc3ccccc3C3=NC(CCC(=O)NCc4cccs4)C(=O)N23)cc1` (stereo unspecified) as the compound, how does the inhibition read?
The inhibition was 3.03%.

How did the inhibition turn out when `O=C(NCCc1ccccc1)C1CCN(c2ncnc3c2nc2n3CCCCC2)CC1` was run?
The inhibition was 15.1%.

How did the inhibition turn out when `Cc1cc2nn(-c3ccccc3)nc2cc1NC(=O)COc1ccc(Cl)cc1` was run?
Its inhibition is -21.5%.

How did the inhibition turn out when `Cc1nn(-c2ccc(F)cc2)c(-n2cccc2)c1C(=O)N1CCN(c2ccccc2)CC1` was run?
The inhibition was -1.51%.

How did the inhibition turn out when `CCOc1ccc(Cn2nnc(C(=O)Nc3cccc(SC)c3)c2N)cc1` was run?
The inhibition was -5.86%.

With `Cc1cc(NC(=O)c2cc(-c3cccc(Cl)c3)on2)nn1Cc1ccc(Cl)cc1` as the compound, how does the inhibition read?
Its inhibition is -2.15%.

With `CCCN(CCC)C(=O)Cn1c(=O)n(-c2ccc(C)c(C)c2)c(=O)c2c3c(sc21)CCCCC3` as the compound, how does the inhibition read?
Its inhibition is 4.34%.

How did the inhibition turn out when `CC1CCC(NC(=O)CCc2cn(Cc3ccccc3Cl)c3ccccc23)CC1` (stereo unspecified) was run?
Its inhibition is 13.3%.

Which inhibition does the source give for `Cc1nc2ccc(S(=O)(=O)N(CC(=O)Nc3cccc(Cl)c3)Cc3ccccc3)cc2s1` here?
The inhibition was 4.04%.

How did the inhibition turn out when `CCOc1ccc(NC(=O)CCn2c(=O)c3cccn3c3cccnc32)cc1` was run?
Its inhibition is -4.06%.

`Cc1nn(CC(=O)NCc2ccc(N(C)C)cc2)c(=O)c2c(C)n(-c3ccc(Cl)cc3)nc12` was tested. Which inhibition did it give?
The inhibition was -10.1%.
